From PubChem BioAssay AID1345083 (National Center for Advancing Translational Sciences (NCATS), 2018)
Where “and” joins values, the source holds several entries; their conditions need not be identical. Identical values can stand only once. The campaign covered roughly 94,000 compounds. About 6,200 (6.6%) were called active. Inconclusive results, whose numbers are uncertain, are shown with a selection of clear calls. Calls follow the shape of the dose curve; as a rule, active = well fitted inhibition curve with a large enough effect; inconclusive = small, poorly fitted or top-dose-only effect; inactive = flat fitted curve, though single readings scatter. Potencies beside an inconclusive call are fits to weak or partial responses and may not hold up.
% is scaled to controls: 0 for no effect and ±100 for the full control effect; potency is read from the fitted curve at half-maximal effect; tags tell the direction and shape of the fitted curve.

Test: Cytotoxic Profiling in HEK 293 Cell Line of Diverse Libraries Using Quantitative High-Throughput Screening; also: nearly all actives have a fitted effect of over 60% in size
Details: HEK 293 viability, ATP luminescence (CellTiter-Glo), 48-72 h; activity change, negative = cytotoxicity: at 115 µM (top of the series) unless noted; series mostly up to 115 µM
Procedure, shortened: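 Cytotoxicity was scored by loss of ATP-coupled luminescence (CellTiter-Glo) in HEK 293 cells. Compound treatment ran 48 or 72 hr at 37 degree Celsius, 5% CO2, 95% humidity.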
For `Cc1ccc(C(=O)N2CCC(N3C(=O)C4(CCCCC4)C3c3ccncc3)CC2)cc1` (stereo not given), the Potency was inconclusive: 89.1 µM [inhibitor, single point].
For `O=C1NCc2ccccc2CC12CCN(Cc1c(F)cccc1Cl)CC2`, the “activity change, negative = cytotoxicity” value was inactive: -14.3%.
With `CCOC(=O)N1CCC(N2CCc3nc(-c4ccc(Cl)cc4)[nH]c3C2)C1` (stereo not given) the Potency was inconclusive: 50.1 µM [inhibitor, partial curve, poor fit].
For `COc1ccc(C)cc1NC(=O)N1c2ccccc2CC1c1nc(C2CC2)no1` (stereo not given), the “activity change, negative = cytotoxicity” value was inactive: -28.9%.
For `Cn1cc(CN2C[C@H](C(=O)Nc3ccc(F)cc3)C[C@@H]2c2cccc(C(F)(F)F)c2)cn1`, the Potency was inconclusive: 79.4 µM [inhibitor, partial curve].
For `Cc1ccccc1C(=O)N1CCN(C(=O)c2nnn3c2COC(c2ccccc2)C3)CC1` (stereo not given), the Potency was inconclusive: 70.8 µM [inhibitor, single point].
In the case of `Cc1cc(C)c(CNC(=O)c2nc(-c3ccccc3C)cc3c2ccn3C(C)C)c(=O)[nH]1`, the Potency is reported as active: 22.4 µM.
With `O=C(NCc1ccnc2[nH]ccc12)c1ccc2ccccc2n1` the Potency was active: 89.1 µM.
With `CCCc1noc(-c2cccn3c(CNC(=O)c4ccc(OC)cc4)nnc23)n1` the “outcome” value was “inactive”.
In the case of `COc1cc(CNC(=O)c2nc3cccnc3n(CC(C)C)c2=O)cc(OC)c1`, the “activity change, negative = cytotoxicity” value is reported as inactive: -8.48%.
For `COc1ccc(F)cc1-c1cccc(C(=O)NCC(=O)NCc2cccs2)c1`, the Potency was inconclusive: 10 µM [inhibitor, full curve, poor fit].
In the case of `CC(C)CCNC(=O)c1cnc2c(c1)N(Cc1ccccc1)CCC2`, the Potency is reported as inconclusive: 70.8 µM [inhibitor, partial curve, poor fit].
For `Cc1cccc(-c2nc3ccc(C(=O)NCc4cccnc4)cc3o2)n1`, the Potency was inconclusive: 100 µM [inhibitor, partial curve].
For `CCNC(=O)C1(CCO)CCN(Cc2ccccc2)C1` (stereo not given), the “activity change, negative = cytotoxicity” value was inactive: -26%.
For `CNC(=O)c1cc(-c2ccc(C(F)(F)F)cc2)nc2c1cnn2C`, the “activity change, negative = cytotoxicity” value was inactive: -20.2%.
In the case of `O=C(Nc1ccc(Cl)nc1)c1ccn2nccc2c1`, the “activity change, negative = cytotoxicity” value is reported as inactive: -1.85% [at 172 µM].
In the case of `COCC(=O)NC1CCN(C(=O)c2ccc(-c3cccc(OC)c3)cc2)CC1`, the Potency is reported as inconclusive: 56.2 µM [inhibitor, partial curve, poor fit] and inconclusive: 89.1 µM [inhibitor, single point].
For `CC1CCN(CC2CCCN(C(=O)Nc3ccccc3F)CC2)CC1` (stereo not given), the Potency was inconclusive: 39.8 µM [inhibitor, partial curve, poor fit].
With `O=C1NCCCCCCN(C(=O)c2cnccn2)[C@H]2C[C@H](C(=O)N3CCc4ccccc4C3)C[C@@H]12` the “activity change, negative = cytotoxicity” value was inactive: -18.7%.
With `Cn1cnc(C(=O)N2[C@@H]3CC[C@H]2CC(NC(=O)c2ccncc2)C3)c1` (stereo not given in full) the “outcome” value was “inactive”.
With `COc1ccc(C(C)NC(=O)c2noc(-c3ccc(F)cc3)n2)cc1OC` (stereo not given) the Potency was inconclusive: 56.2 µM [inhibitor, partial curve, poor fit].
For `CN(Cc1ccc(F)cc1)Cc1ccccc1OCC(O)CN1CCCCC1` (stereo not given), the Potency was inconclusive: 50.1 µM [inhibitor, partial curve, poor fit].
For `Cc1ccc(C(=O)NC2CCN(c3ccc4nnc(-c5ccccc5)n4n3)CC2)cc1`, the Potency was inconclusive: 89.1 µM [inhibitor, partial curve, poor fit].
For `CCOC(=O)N1CCC(=O)N(CCOC)C[C@H]2COc3cc(OC)ccc3[C@H]21`, the “activity change, negative = cytotoxicity” value was inactive: -23.7%.
With `Cc1cc2nc(CO[C@H]3CN(Cc4ccc(C(=O)O)cc4)C[C@H]3F)[nH]c2cc1C` the “activity change, negative = cytotoxicity” value was inactive: -8.12% [at 172 µM].
In the case of `COc1ccc(C(=O)N2CCC(Cc3nc(C4CC4)n[nH]3)C2)cc1` (stereo not given), the “activity change, negative = cytotoxicity” value is reported as inactive: -5.5%.
For `COC(=O)C1=C(C)N(Cc2cc(F)cc(F)c2)C(=O)CC1c1ccccc1Cl` (stereo not given), the Potency was inconclusive: 89.1 µM [inhibitor, single point].
For `COc1ccc(CC(=O)NC2CCCN(c3cc(-c4ccc(OC)cc4)[nH]n3)C2)cc1` (stereo not given), the “activity change, negative = cytotoxicity” value was inactive: 4.61%.
With `COc1ccc(-c2cc(C(=O)NC3CCNCC3)c3c(C)nn(-c4ccccc4)c3n2)cc1` the Potency was active: 25.1 µM.
In the case of `CN(CCCNC1CCC2(CCNCC2)CC1)c1ccccc1`, the Potency is reported as active: 79.4 µM.
With `O=C(C1CCCC1)N1CCOC[C@H](Oc2ccc(C(F)(F)F)cc2)C1` the Potency was inconclusive: 112 µM [inhibitor, partial curve].
In the case of `Cc1cn2nc(C(=O)N3CCSCC3)cc2c(N(C)Cc2ccccc2)n1`, the Potency is reported as inconclusive: 50.1 µM [inhibitor, partial curve, poor fit].
With `CCn1cc(S(=O)(=O)N2CCCN(S(=O)(=O)c3ccccc3)CCC(=O)NCC2)cn1` the “activity change, negative = cytotoxicity” value was inactive: -14.2%.
For `COc1ccc(CN2C[C@H](COCc3ccccc3)Oc3ncccc3[S+]2(=O)[O-])cc1`, the Potency was inconclusive: 39.8 µM [inhibitor, single point].
For `CN(Cc1ccccc1C(F)(F)F)C(=O)c1cccc(Cl)c1`, the Potency was active: 89.1 µM.
In the case of `CCOC(=O)c1cn(C2CN(C(=O)Cc3cccc(Cl)c3)C2)nn1`, the “activity change, negative = cytotoxicity” value is reported as inactive: 0.619%.
In the case of `O=C(NC1CCCC1)NC1CCCN(c2cc(N3CCCC3)ncn2)C1` (stereo not given), the “activity change, negative = cytotoxicity” value is reported as inactive: -5.12%.
In the case of `CCc1cc(=O)n(CC(=O)Nc2ccccc2C)c(-c2ccccc2)n1`, the “activity change, negative = cytotoxicity” value is reported as inactive: -33.5%.
For `O=C(Cn1c(=O)c2c(n1Cc1ccccc1)CN(Cc1ccccc1)CC2)NCc1ccc2c(c1)OCO2`, the Potency was inconclusive: 56.2 µM [inhibitor, partial curve, poor fit].
In the case of `O=C(CN1C(=O)C(c2ccccc2)=NC12CCCC2)Nc1ccc2c(c1)OCO2`, the Potency is reported as inconclusive: 89.1 µM [inhibitor, single point].
With `Cc1cccc(NC(=O)N2CC(Oc3ccccc3-c3nc(-c4ccccc4)no3)C2)c1` the “activity change, negative = cytotoxicity” value was inactive: -3.06%.
With `CN1C(=O)CCC2(CNC(=O)C3CCC3)CCC=C12` (stereo not given) the “activity change, negative = cytotoxicity” value was inactive: -10.2%.
With `CC1(c2cccnc2)N(Cc2ccccc2)C(=O)OC12CCN(C(=O)COc1ccccc1)CC2` (stereo not given) the “activity change, negative = cytotoxicity” value was inactive: -8.98%.
For `O=S(=O)(c1ccccc1)N1CC(c2noc(C3CCCN3CC3CC3)n2)C1` (stereo not given), the Potency was inconclusive: 44.7 µM [inhibitor, partial curve, poor fit].
For `COc1ccccc1CN1CCNc2cnc(OCc3cccnc3)cc2C1`, the Potency was inconclusive: 112 µM [inhibitor, single point].
For `COc1ccc(-c2cc(-c3ccc(OC)c(OC)c3)cn3cncc23)cc1`, the Potency was active: 70.8 µM.
For `Cc1nc(N2CCN(C(=O)c3ccc(C)s3)CC2)cc(C(F)(F)F)n1`, the “activity change, negative = cytotoxicity” value was inactive: -25.7%.
In the case of `Cn1ncc2c(C(=O)NCC(=O)c3ccccc3)cc(-c3ccc(F)cc3)nc21`, the Potency is reported as inconclusive: 22.4 µM [inhibitor, full curve].
For `CC(C)Cc1cc(C(=O)N2CCN(CCOc3ccccc3)CC2)on1`, the Potency was inconclusive: 50.1 µM [inhibitor, partial curve, poor fit].
With `O=C1NC(=O)C(CCC(=O)N2CCCN(Cc3ccccn3)CC2)N1` (stereo not given) the Potency was inconclusive: 63.1 µM [inhibitor, partial curve, poor fit].
For `COC(=O)N1CCn2cc(C(=O)Nc3ccc(Cl)cc3Cl)nc2C1`, the Potency was inconclusive: 89.1 µM [inhibitor, partial curve, poor fit].
In the case of `Cc1nc(C(C)C)sc1C(=O)N1CCC(Cc2ccc(C(=O)O)cc2)C1` (stereo not given), the “outcome” value is reported as “inactive”.
In the case of `CCn1nccc1C(=O)N1CCC2(CC1)CC(N(Cc1ccc(F)cc1)C1CC1)CCO2` (stereo not given), the Potency is reported as active: 39.8 µM.
For `COc1ccc(CNC(=O)Cn2ccn3nc(-c4ccccc4)c(CO)c3c2=O)cc1OC`, the Potency was inconclusive: 89.1 µM [inhibitor, single point].
With `Cc1noc(-c2ccccc2OC2CCN(S(C)(=O)=O)C2)n1` (stereo not given) the Potency was inconclusive: 3.55 µM [inhibitor, single point].
For `COC(=O)C(NC(=O)N1CCC(c2cc(-c3cccc(OC)c3)n[nH]2)CC1)c1ccccc1` (stereo not given), the Potency was inconclusive: 39.8 µM [inhibitor, full curve, poor fit].
In the case of `CCNC(=O)N1CCCC1c1noc(CCC(=O)N2CCN(c3ccccn3)CC2)n1` (stereo not given), the “activity change, negative = cytotoxicity” value is reported as inactive: -8.5%.
In the case of `CCNC(=O)CN1CCN(C(=O)[C@@H](N)Cc2cnc[nH]2)CC1`, the “activity change, negative = cytotoxicity” value is reported as inactive: -0.995%.
With `COc1ccc2c(c1)c(CN1CCC3(CC1)CC(C(=O)N1CCOCC1)N(C)C3)cn2C` (stereo not given) the Potency was inconclusive: 10 µM [inhibitor, full curve, poor fit].
In the case of `O=C(NCC1CC1)c1ccc2nnc(Cc3ccc(Cl)cc3)n2c1`, the Potency is reported as inconclusive: 89.1 µM [inhibitor, single point].
In the case of `CC(C)(C)c1nnc2n1C(C(=O)N1CCN(c3ncccn3)CC1)CC2` (stereo not given), the “outcome” value is reported as “inactive”.
In the case of `Cc1noc(C)c1S(=O)(=O)N1CCC(C(=O)N2CCC(c3ccccc3)CC2)CC1`, the Potency is reported as inconclusive: 50.1 µM [inhibitor, partial curve, poor fit].
With `O=C(c1ccc(F)c(Cl)c1)N1CCCC2(C1)NC(=O)N(Cc1ccccc1)C2=O` (stereo not given) the Potency was inconclusive: 39.8 µM [inhibitor, partial curve].
For `Fc1ccc(C2Cn3nnc(-c4nc(-c5ccc(F)c(F)c5)no4)c3CO2)cc1` (stereo not given), the Potency was inconclusive: 35.5 µM [inhibitor, partial curve, poor fit].
In the case of `COCCN(Cc1cnc(-c2cccc(C)c2)nc1)Cc1cccs1`, the Potency is reported as inconclusive: 50.1 µM [inhibitor, partial curve, poor fit].
With `Cn1nccc1C(=O)N1CC(c2ncc3c(-c4cccc(C(F)(F)F)c4)nccn23)C1` the Potency was inconclusive: 100 µM [inhibitor, partial curve, poor fit].
In the case of `Cc1ccc(C(=O)NC(C(=O)N2CCCC2)C2CCN(C(=O)c3ccc4c(c3)OCO4)CC2)cc1` (stereo not given), the “activity change, negative = cytotoxicity” value is reported as inactive: -26.9%.
In the case of `O=C(Cn1nc2c(cc1=O)CCCC2)NC1CCN(Cc2ccc(F)cc2)CC1`, the “activity change, negative = cytotoxicity” value is reported as inactive: -3.98%.
With `CC(=O)N1CCC(N2C(=O)c3c(c(C)nn3-c3ccccc3)C2C)CC1` (stereo not given) the “activity change, negative = cytotoxicity” value was inactive: 3.96%.
With `O=C(c1cccnc1)N1CCN(c2ccc3nnc(-c4ccccc4)n3n2)CC1` the “activity change, negative = cytotoxicity” value was inactive: -5.13%.
